Experimental data: the BET-seq Pho4 binding data (Le et al. 2018)
The list shows a part of the results. The energies were worked out here from pooled read counts, against the library average; single values are noisy.

Target: T1, Pho4 (S. cerevisiae) (UniProt P07270)
T1 sequence: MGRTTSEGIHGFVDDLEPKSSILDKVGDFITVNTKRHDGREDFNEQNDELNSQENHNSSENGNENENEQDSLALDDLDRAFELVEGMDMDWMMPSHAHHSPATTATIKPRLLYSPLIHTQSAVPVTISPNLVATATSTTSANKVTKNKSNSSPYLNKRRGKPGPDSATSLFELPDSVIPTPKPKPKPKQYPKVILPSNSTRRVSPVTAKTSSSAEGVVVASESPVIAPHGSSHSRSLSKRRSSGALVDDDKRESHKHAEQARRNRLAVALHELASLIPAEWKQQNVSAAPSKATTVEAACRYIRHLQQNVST
Experiment: relative binding free energy (BET-seq); higher = weaker binding
Conditions: reference: library average

Sequence | relative binding free energy
CTTCTCACGTGTGGGT | 0.16 kcal/mol
GGAGGCACGTGGGCAA | -0.21 kcal/mol
GGTTGCACGTGCGGGT | -0.01 kcal/mol
GCGATCACGTGTGTAT | 0.27 kcal/mol
AGTGTCACGTGGTCTA | -0.11 kcal/mol
ATGTTCACGTGATGTA | 0.33 kcal/mol
TTGGGCACGTGGGAGG | -0.07 kcal/mol
ATGTCCACGTGAGAGT | 0.25 kcal/mol
TAGGACACGTGCGGGA | 0.11 kcal/mol
CAATGCACGTGTTTGA | 0.12 kcal/mol
TAGTTCACGTGTACAT | 0.26 kcal/mol
GGTTGCACGTGGTTTT | -0.01 kcal/mol
CTTGACACGTGTTTGT | -0.05 kcal/mol
TATGGCACGTGTTTGA | -0.19 kcal/mol
TTCTTCACGTGTAAGG | 0.25 kcal/mol
TATGACACGTGGTCTG | -0.1 kcal/mol
TTGAGCACGTGTGGGA | -0.02 kcal/mol
GGTCGCACGTGAGGGC | 0.21 kcal/mol
TAATCCACGTGTTTGG | 0.01 kcal/mol
GTGTCCACGTGGAATG | 0.02 kcal/mol
TTGATCACGTGGTTTG | 0.11 kcal/mol
GGTTTCACGTGTTATA | 0.29 kcal/mol
TAGTGCACGTGGGGCA | -0.21 kcal/mol
GGATTCACGTGTCAGG | 0.35 kcal/mol
GTGATCACGTGGGACT | 0.12 kcal/mol

Sequence | relative binding free energy
GTCGGCACGTGAGCTG | 0.14 kcal/mol
TTAGGCACGTGATCGG | -0.09 kcal/mol
ATGGGCACGTGCGCGT | -0.24 kcal/mol
GTCATCACGTGTTTTT | 0.21 kcal/mol
ATGAACACGTGATGTT | 0.1 kcal/mol
TTACGCACGTGGTTGA | -0.21 kcal/mol
AAGATCACGTGCTGGG | 0.11 kcal/mol
GTCGGCACGTGCGAGT | 0.1 kcal/mol
CTTAGCACGTGGAGAG | -0.01 kcal/mol
AAGGGCACGTGATGCG | -0.14 kcal/mol
TGATTCACGTGGTTTG | 0.25 kcal/mol
GTACACACGTGAGTGG | 0.28 kcal/mol
TTGGTCACGTGAGTTC | 0.35 kcal/mol
GTGTACACGTGCGGGA | 0 kcal/mol
GGTGTCACGTGCGAGG | 0.23 kcal/mol
TGATACACGTGTGTTC | -0.02 kcal/mol
TGACGCACGTGAGTAT | 0.21 kcal/mol
ATCATCACGTGGGTTG | -0.14 kcal/mol
ATCGACACGTGGGGCT | 0.03 kcal/mol
TGTGTCACGTGCGTAG | -0.06 kcal/mol
GAGGGCACGTGAGCGT | 0.1 kcal/mol
GAGGTCACGTGCTGAT | 0.12 kcal/mol
GGATTCACGTGAGTGT | 0.47 kcal/mol
GGTCTCACGTGGGTTA | 0.02 kcal/mol
GTCTGCACGTGGCGTG | -0.12 kcal/mol

Sequence | relative binding free energy
TGATGCACGTGTTGTT | 0 kcal/mol
TGTGACACGTGCGATT | 0.04 kcal/mol
TAAGACACGTGTAAGG | 0.07 kcal/mol
TGCCTCACGTGGTGTT | 0.08 kcal/mol
CGATTCACGTGAGTTT | 0.31 kcal/mol
ATTTTCACGTGATGAT | 0.33 kcal/mol
CTATGCACGTGCGGTT | -0.05 kcal/mol
GTTGTCACGTGTGACG | 0.2 kcal/mol
TTCGTCACGTGATTTT | 0.3 kcal/mol
TGGAACACGTGTTCGG | -0.07 kcal/mol
GTAGCCACGTGCTTGT | 0.05 kcal/mol
TACTTCACGTGATGGT | 0.35 kcal/mol
TATTACACGTGCTGTA | 0.06 kcal/mol
TTTGTCACGTGCCATG | 0.06 kcal/mol
GATCTCACGTGTTGTT | 0.28 kcal/mol
TGGAACACGTGCGAGG | -0.05 kcal/mol
GTCGTCACGTGAAGGG | 0.29 kcal/mol
AGATTCACGTGGGGAA | 0.23 kcal/mol
GTTTGCACGTGCGGGG | -0.02 kcal/mol
TGATTCACGTGGCGTG | 0.21 kcal/mol
AGGATCACGTGTAATG | 0.2 kcal/mol
GTTAACACGTGGGGCG | -0.14 kcal/mol
GACAACACGTGGGTTG | 0.02 kcal/mol
AAGATCACGTGGGTGT | 0.02 kcal/mol
TGTCGCACGTGCAGGG | -0.16 kcal/mol

Sequence | relative binding free energy
AGAGGCACGTGTGCAT | -0.13 kcal/mol
AAGTTCACGTGGTGAT | 0.14 kcal/mol
TTGGTCACGTGCGGAC | -0.01 kcal/mol
AGGTACACGTGCTTGA | 0 kcal/mol
TGGCGCACGTGGTGAT | -0.32 kcal/mol
TGTTGCACGTGCGGCG | -0.19 kcal/mol
AATATCACGTGACGGG | 0.25 kcal/mol
AGCGCCACGTGTTGGG | -0.04 kcal/mol
TGAGTCACGTGCGCTG | -0.03 kcal/mol
TATCACACGTGTTTTT | 0.16 kcal/mol
TGGTTCACGTGCGGGA | 0.29 kcal/mol
GGCGACACGTGGATGG | 0.11 kcal/mol
TTGACCACGTGGGCGT | -0.24 kcal/mol
AGTTGCACGTGGCATT | -0.04 kcal/mol
AATTTCACGTGGGGTT | 0.2 kcal/mol
TGTGACACGTGAGTCG | 0.25 kcal/mol
TGATACACGTGTCTGG | 0.1 kcal/mol
TTATTCACGTGAAATA | 0.26 kcal/mol
TTCTTCACGTGAGGTG | 0.47 kcal/mol
TTCTACACGTGTGAGT | 0.13 kcal/mol
CGGGGCACGTGGGCAT | -0.27 kcal/mol
TAGTTCACGTGTTAGG | 0.3 kcal/mol
GTCGTCACGTGTTGAA | 0.18 kcal/mol
GGTCTCACGTGATAGT | 0.33 kcal/mol
TGTGTCACGTGCTCAG | 0.03 kcal/mol

Sequence | relative binding free energy
CTTTTCACGTGTTGGG | 0.27 kcal/mol
TCCTTCACGTGGGGTA | 0.13 kcal/mol
GACATCACGTGTTGGT | 0.14 kcal/mol
GTTTTCACGTGTACGT | 0.3 kcal/mol
TGTGTCACGTGTGTGC | 0.13 kcal/mol
TAGTCCACGTGAAGTG | 0.37 kcal/mol
TTGTACACGTGTGATT | 0.15 kcal/mol
CGGGCCACGTGTGGCG | 0.05 kcal/mol
TGTATCACGTGTTGGT | 0.17 kcal/mol
ATCATCACGTGGGATG | 0.01 kcal/mol
GTTATCACGTGATCGT | 0.32 kcal/mol
AGGCGCACGTGGTCTG | -0.27 kcal/mol
GAGTTCACGTGTGCGG | 0.29 kcal/mol
TGGTGCACGTGGCTGA | -0.09 kcal/mol
TGATACACGTGTAGTA | 0.03 kcal/mol
AGTAGCACGTGTTGCA | -0.15 kcal/mol
TATTACACGTGCGTGA | 0 kcal/mol
TATTCCACGTGGGGAG | 0.06 kcal/mol
AGGCTCACGTGTTGGT | 0.29 kcal/mol
TTTTCCACGTGGCAGT | 0.14 kcal/mol
AGTTACACGTGGACTG | 0.1 kcal/mol
CTGGACACGTGGTGGA | -0.03 kcal/mol
AGGCTCACGTGGTAGG | 0.22 kcal/mol
CAGCTCACGTGGTGTG | 0.09 kcal/mol
CGGTTCACGTGTAGGT | 0.23 kcal/mol

Sequence | relative binding free energy
ATGATCACGTGGTCGT | 0.1 kcal/mol
GTCATCACGTGGTCGG | 0.03 kcal/mol
TGGGCCACGTGGATCG | -0.1 kcal/mol
GGGTGCACGTGTGCAA | 0.02 kcal/mol
TAGTTCACGTGAGTCG | 0.4 kcal/mol
TTATTCACGTGACTTG | 0.38 kcal/mol
TGGTGCACGTGCGTAT | -0.13 kcal/mol
ATCAGCACGTGTAAGT | 0.09 kcal/mol
GAAGGCACGTGGGGCG | -0.2 kcal/mol
TGGAACACGTGGCTGG | -0.06 kcal/mol
ACGATCACGTGGGTTT | 0.05 kcal/mol
TGTTGCACGTGTCGCT | -0.05 kcal/mol
TTCTTCACGTGCGGGT | 0.25 kcal/mol
TAGAGCACGTGGAGAT | 0.01 kcal/mol
TCTTACACGTGTAAGG | 0.13 kcal/mol
ATGAGCACGTGTTGTT | -0.15 kcal/mol
TGTAGCACGTGTCGGC | -0.09 kcal/mol
ATGGGCACGTGATCTG | -0.13 kcal/mol
AGGAGCACGTGCCGGT | -0.09 kcal/mol
GTTTACACGTGGATAT | 0.19 kcal/mol
GTAGGCACGTGGGCCT | -0.2 kcal/mol
